Assay results from PMC3348924.
No constants are given. Whether binding was seen depends on the method and setting. Binding seen in cells or lysates may run through a third protein. Some entries that bind do so weakly or less than the wild type. Tags and fused reporters may be left off the sequences shown. One block for each molecule: values may come before it.

Protein sequences, listed by entry. Tags and fused reporters are not part of them. Lines headed by an entry give the natural chain unless they say otherwise; changes in a name come on top. Residues count along the entry.
UniProt P19838, residues 1-433: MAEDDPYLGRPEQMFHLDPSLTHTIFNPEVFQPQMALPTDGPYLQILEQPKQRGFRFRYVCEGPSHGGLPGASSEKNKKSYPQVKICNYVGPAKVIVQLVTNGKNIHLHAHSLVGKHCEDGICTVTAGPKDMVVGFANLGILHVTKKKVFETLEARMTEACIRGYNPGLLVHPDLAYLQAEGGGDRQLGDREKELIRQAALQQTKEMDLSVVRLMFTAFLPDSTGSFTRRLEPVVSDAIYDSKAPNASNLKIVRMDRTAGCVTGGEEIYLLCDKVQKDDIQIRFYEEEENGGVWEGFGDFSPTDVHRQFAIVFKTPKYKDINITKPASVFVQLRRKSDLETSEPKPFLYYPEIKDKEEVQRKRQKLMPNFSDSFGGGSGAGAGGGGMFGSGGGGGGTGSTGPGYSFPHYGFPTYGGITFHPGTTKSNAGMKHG
UniProt Q04865: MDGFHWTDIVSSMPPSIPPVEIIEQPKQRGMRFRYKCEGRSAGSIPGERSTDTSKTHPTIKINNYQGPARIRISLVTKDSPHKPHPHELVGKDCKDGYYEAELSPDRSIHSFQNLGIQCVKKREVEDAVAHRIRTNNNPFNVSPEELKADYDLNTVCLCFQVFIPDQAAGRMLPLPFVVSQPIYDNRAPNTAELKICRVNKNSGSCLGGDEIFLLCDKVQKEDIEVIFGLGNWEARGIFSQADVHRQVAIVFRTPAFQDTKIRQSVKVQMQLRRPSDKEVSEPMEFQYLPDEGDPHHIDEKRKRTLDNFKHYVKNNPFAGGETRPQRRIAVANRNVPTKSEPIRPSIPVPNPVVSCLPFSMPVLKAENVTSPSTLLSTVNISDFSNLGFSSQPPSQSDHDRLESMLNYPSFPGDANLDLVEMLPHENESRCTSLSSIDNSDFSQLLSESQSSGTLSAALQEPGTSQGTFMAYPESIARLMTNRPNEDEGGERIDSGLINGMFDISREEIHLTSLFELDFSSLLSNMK

Legend:
Test in all cases: pull-down; 15 µg recombinant 6xHis-Trx-S-tag protein mixed with 8 µl 35S-labelled in vitro translated protein in 50 µl Binding Buffer (20 mM Tris-HCl pH 7.5, 150 mM NaCl, 1 mM dithiothreitol, 0.6% Tween), 20 min at 37°C; captured on S protein-agarose 30 min at 4°C; SDS-PAGE and autoradiography; only the target purified
[1] = molecular target: T1, full length Xenopus β-Catenin fused to 6xHis-Trx-S-tag (Xenopus) (UniProt P26233)
T1 sequence: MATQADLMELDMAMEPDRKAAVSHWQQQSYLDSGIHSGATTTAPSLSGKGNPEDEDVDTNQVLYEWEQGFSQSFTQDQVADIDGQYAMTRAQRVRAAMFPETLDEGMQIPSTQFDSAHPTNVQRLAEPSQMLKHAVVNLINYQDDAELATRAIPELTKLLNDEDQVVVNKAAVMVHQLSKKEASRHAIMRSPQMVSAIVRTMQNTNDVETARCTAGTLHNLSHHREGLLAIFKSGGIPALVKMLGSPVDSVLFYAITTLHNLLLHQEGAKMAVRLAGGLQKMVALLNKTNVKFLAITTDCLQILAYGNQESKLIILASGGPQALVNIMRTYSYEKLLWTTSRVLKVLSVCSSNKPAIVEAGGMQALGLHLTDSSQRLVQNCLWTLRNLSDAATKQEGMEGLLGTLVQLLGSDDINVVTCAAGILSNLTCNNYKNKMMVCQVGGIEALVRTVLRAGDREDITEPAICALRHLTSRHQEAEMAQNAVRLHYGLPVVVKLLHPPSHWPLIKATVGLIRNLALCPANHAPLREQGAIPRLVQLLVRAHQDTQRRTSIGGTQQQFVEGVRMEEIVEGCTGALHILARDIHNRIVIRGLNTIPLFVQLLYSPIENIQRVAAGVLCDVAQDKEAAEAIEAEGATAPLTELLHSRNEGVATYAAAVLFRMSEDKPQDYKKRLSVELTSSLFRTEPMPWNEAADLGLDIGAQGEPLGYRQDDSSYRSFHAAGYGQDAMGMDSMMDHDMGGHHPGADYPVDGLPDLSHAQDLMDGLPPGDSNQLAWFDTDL

[2] = molecular target: T2, Xenopus β-Catenin fragment C-term (aa665–781) fused to 6xHis-Trx-S-tag (Xenopus) (UniProt P26233)
T2 sequence: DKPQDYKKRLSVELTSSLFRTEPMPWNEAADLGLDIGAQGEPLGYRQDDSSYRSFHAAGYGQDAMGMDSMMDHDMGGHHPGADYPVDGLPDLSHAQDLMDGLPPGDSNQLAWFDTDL

[3] = molecular target: T3, Xenopus β-Catenin fragment arm1–12 (aa144–671) fused to 6xHis-Trx-S-tag (Xenopus) (UniProt P26233)
T3 sequence: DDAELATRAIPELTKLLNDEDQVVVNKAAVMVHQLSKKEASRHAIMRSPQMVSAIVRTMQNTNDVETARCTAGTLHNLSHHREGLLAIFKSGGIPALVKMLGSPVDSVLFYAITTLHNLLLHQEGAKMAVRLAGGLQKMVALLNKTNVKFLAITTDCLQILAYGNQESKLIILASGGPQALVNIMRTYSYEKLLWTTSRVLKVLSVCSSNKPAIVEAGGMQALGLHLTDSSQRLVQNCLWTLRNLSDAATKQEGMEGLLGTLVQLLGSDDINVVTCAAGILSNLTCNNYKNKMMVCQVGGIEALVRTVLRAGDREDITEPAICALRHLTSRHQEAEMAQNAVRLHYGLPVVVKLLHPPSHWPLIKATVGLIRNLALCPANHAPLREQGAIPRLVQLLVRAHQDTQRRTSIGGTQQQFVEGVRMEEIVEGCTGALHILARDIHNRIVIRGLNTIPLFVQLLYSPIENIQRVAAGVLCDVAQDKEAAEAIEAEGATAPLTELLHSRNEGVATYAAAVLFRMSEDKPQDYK

[4] = molecular target: T4, Xenopus β-Catenin fragment N-term (aa2–143) fused to 6xHis-Trx-S-tag (Xenopus) (UniProt P26233)
T4 sequence: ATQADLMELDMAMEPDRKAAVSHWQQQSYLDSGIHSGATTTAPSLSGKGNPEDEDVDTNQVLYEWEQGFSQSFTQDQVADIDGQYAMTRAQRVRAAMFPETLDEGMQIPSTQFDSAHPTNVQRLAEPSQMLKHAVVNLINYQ

[5] = molecular target: T5, Xenopus β-Catenin fragment arm1–8 (aa144–445) fused to 6xHis-Trx-S-tag (Xenopus) (UniProt P26233)
T5 sequence: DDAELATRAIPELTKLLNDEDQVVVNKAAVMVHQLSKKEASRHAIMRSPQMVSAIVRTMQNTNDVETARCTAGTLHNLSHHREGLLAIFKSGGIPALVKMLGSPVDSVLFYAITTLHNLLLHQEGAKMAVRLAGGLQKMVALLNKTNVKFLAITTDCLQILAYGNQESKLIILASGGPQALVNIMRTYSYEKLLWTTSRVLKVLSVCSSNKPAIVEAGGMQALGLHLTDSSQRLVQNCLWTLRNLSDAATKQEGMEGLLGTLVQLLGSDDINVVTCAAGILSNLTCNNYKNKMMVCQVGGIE

Molecule: human p50 (from UniProt P19838 1-433)
- binding [1]: no binding (tested: 15 µg recombinant protein in 50 µl)

Molecule: rel homology domain (RHD) of XRelA (from UniProt Q04865 18-306) (domain or fragment)
- binding [1]: binds

Continued, in another order:

- binding [1]: binds
- binding [3]: binds
- binding [5]: binds
Molecule: XrelA (from UniProt Q04865 1-527)
- binding [2]: no binding (tested: 15 µg recombinant protein in 50 µl)
- binding [4]: no binding (tested: 15 µg recombinant protein in 50 µl)

- binding [1]: binds
B1: XrelB (protein, UniProt P51510 1-497)
chain: MREQGREGSSFLSQQLGPTIEDVMDLINSDRDVISSPSVFVCEDAPSSILSTVTVAHYVPHEQCPSTSWAPQREGPNPELNITEQPKQRGMRFRYQCEGRSTGSILGEKSTEHNKTLPEIEIINCDGLEEIHVIVCLVWRDPPHRVHPHGLVGKDCHNGICEVTLNPQNGVAKHSFSNLGIQCVRKREIDSAVNERLKLNIDPYKAGKWRLHEEVDLNVVRLCFQASCTGPGFKYDIPPVLSDPIYDKKSTNTSELKISRMNKEYGRCEGGEEVYILCDKVQKEDILVIFGEDKWEARADFSQADVHRQIAIVLKTPPYHDLHITEPACVRVFLQRITDGIRSEGMPFVYMPRVKDPNGVHSKRKHRDCSQLGDIGDPDPHGIEMKRRKVRPSYADHLIPPYPDINLPLMDSFNHNEGYHDLPLMNPDEDAFHFLTEDPHFSDLLTHDPYFLDGYSNQFLPDQVNGVTAHLVGSSLALTDEEQPLPDCAFNDSGCRR
modifications: 35S-labelled
